# Measured values: the supplement of paper PMC9446081
# Hit rate of the full screen: of about 39,000 compounds, about 220 (0.56%) showed activity. Some of the results follow.
# Test system: Escherichia coli K-12 BW25113
# Assay: relative growth (OD600 normalised to plate interquartile mean) (fraction); higher = less growth inhibition, active = 0.2 or less
# Conditions: 50 µM; LB; incubation time: overnight (16-24 h)
# 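Also: static incubation at 37 °C against the wild-type strain, values averaged over two biological replicates.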
row,SMILES,relative growth
1,COc1ccc2c3c(n(c2c1)C)[C@H](CO)N(C[C@]13CN(C1)C(=O)Cc1ccccc1)C(=O)c1ccccn1,inactive: 1.01
2,O=C(C[C@H]1CC[C@H]2[C@@H](COC[C@@H](O)CN2S(=O)(=O)c2ccccc2F)O1)NCc1ccccc1Cl,inactive: 1
3,C/C=C/c1ccc2c(c1)O[C@@H](CN(C)C(=O)c1ccc3c(c1)OCO3)[C@H](C)CN([C@@H](C)CO)S2(=O)=O,inactive: 0.996
4,Cc1ccc(S(=O)(=O)N2C[C@H](O)COC[C@@H]3O[C@@H](CC(=O)N4CCc5ccccc5C4)CC[C@H]32)cc1,inactive: 1
5,C[C@@H]1CN([C@@H](C)CO)C(=O)c2cccc(NC(=O)C3CCOCC3)c2O[C@H]1CN(C)Cc1ccncc1,inactive: 0.997
6,C[C@H](CO)N1C[C@H](C)[C@H](CN(C)S(=O)(=O)c2ccc(Cl)cc2)Oc2ccc(NC(=O)CCN3CCOCC3)cc2CC1=O,inactive: 0.947
7,COC(=O)C[C@H]1CC[C@H](N)[C@@H](CO)O1,inactive: 0.982
8,COCC(=O)Nc1ccc2c(c1)C(=O)N(C)C[C@@H](OC)[C@@H](C)CN(Cc1ccccc1F)[C@H](C)CO2,inactive: 0.994
9,C[C@H]1CN([C@@H](C)CO)C(=O)Cc2cc(NC(=O)CCN3CCOCC3)ccc2O[C@@H]1CN(C)S(=O)(=O)c1ccc(Cl)cc1,inactive: 1
10,C[C@H]1CN([C@@H](C)CO)C(=O)c2cc(NC(=O)CCN3CCOCC3)ccc2O[C@@H]1CN(C)CC1CCCCC1,inactive: 0.993
11,Cc1noc(C)c1NC(=O)N(C)C[C@@H]1Oc2c(NS(C)(=O)=O)cccc2C(=O)N([C@@H](C)CO)C[C@@H]1C,inactive: 0.991
12,C[C@H](CO)N1C[C@H](C)[C@@H](CN(C)Cc2ccc(C(=O)O)cc2)Oc2ccc(NC(=O)Nc3cccc4ccccc34)cc2CC1=O,inactive: 0.989
13,C[C@@H]1CCCCO[C@H](CN(C)C(=O)Cc2ccccc2)[C@H](C)CN([C@H](C)CO)C(=O)c2cc(NS(=O)(=O)c3ccc(F)cc3)ccc2O1,inactive: 1.04
14,Cc1noc(C)c1NC(=O)N(C)C[C@@H]1Oc2ccc(NS(=O)(=O)c3cn(C)cn3)cc2CC(=O)N([C@@H](C)CO)C[C@H]1C,inactive: 1.01
15,C[C@@H]1CN([C@@H](C)CO)C(=O)c2cccc(NC(=O)Nc3ccc(C(F)(F)F)cc3)c2O[C@@H]1CN(C)C(=O)Nc1ccc(C(F)(F)F)cc1,inactive: 0.989
16,C[C@@H]1CN([C@@H](C)CO)C(=O)CCCn2nncc2CO[C@H]1CN(C)C(=O)Nc1ccc(N2CCN(C)CC2)cc1,inactive: 0.998
17,C[C@@H]1CN([C@H](C)CO)C(=O)c2cc(NS(C)(=O)=O)ccc2O[C@@H](C)CCCCO[C@H]1CN(C)Cc1ccc(C(F)(F)F)cc1,inactive: 0.969
18,COC1C=COC2(C)Oc3c(C)c(O)c4c(O)c(c(C=NN5CCN(C6CCCC6)CC5)c(O)c4c3C2=O)NC(=O)C(C)=CC=CC(C)C(O)C(C)C(O)C(C)C(OC(C)=O)C1C (configuration not stated),active: 0.0719
19,COc1ccc(S(=O)(=O)Nc2ccc3c(c2)C(=O)N([C@H](C)CO)C[C@H](C)[C@H](CN(C)C(=O)Nc2c(C)noc2C)O3)cc1,inactive: 1
20,Cc1ccc(-c2ccc3c(c2)O[C@H](CN(C)C(=O)CN(C)C)[C@@H](C)CN([C@@H](C)CO)S3(=O)=O)cc1,inactive: 0.988
21,COCC(=O)N[C@H]1C=C[C@@H](CC(=O)N2CCCCC2)O[C@H]1CO,inactive: 0.988

row,SMILES,relative growth
1,C=CC[C@@H](CC(=O)NCCO)C(=O)N[C@@H](COC(=O)[C@@H](CC=C)CC(=O)OC(C)(C)C)Cc1ccccc1,inactive: 1.01
2,O=c1cc(-c2ccc(O)cc2)oc2cc(O)cc(O)c12,inactive: 1.06
3,COc1ccc(NC(=O)Nc2ccc3c(c2)C(=O)N([C@H](C)CO)C[C@@H](C)[C@H](CN(C)S(=O)(=O)c2ccc(OC)cc2)OCCCC[C@H](C)O3)cc1,inactive: 1.01
4,C[C@@H]1CN([C@@H](C)CO)C(=O)Cc2cc(NC(=O)C3CC3)ccc2O[C@H]1CN(C)C(=O)Nc1ccc2c(c1)OCO2,inactive: 1.03
5,C[C@H](CO)N1C[C@H](C)[C@H](CN(C)S(=O)(=O)c2cn(C)cn2)Oc2ccc(NC(=O)Nc3ccc4c(c3)OCO4)cc2C1=O,inactive: 1.01
6,O=C(C[C@@H]1CC[C@@H]2[C@H](COC[C@H](O)CN2C(=O)Nc2ccc3c(c2)OCO3)O1)N1CCN(c2ccccc2)CC1,inactive: 1.01
7,CN1CCN(C(=O)C[C@@H]2CC[C@@H]3[C@H](COC[C@@H](O)CN3S(=O)(=O)c3cccc(F)c3)O2)CC1,inactive: 0.981
8,CC(=O)C1CCC2C3CC=C4CC(O)CCC4(C)C3CCC12C (configuration not stated),inactive: 1.1
9,COc1ccc(CN(C)C[C@H]2Oc3c(NS(=O)(=O)c4cn(C)cn4)cccc3C(=O)N([C@H](C)CO)C[C@@H]2C)cc1,inactive: 1
10,Cc1noc(C)c1NC(=O)Nc1cccc2c1O[C@@H](CN(C)C(=O)NC(C)C)[C@@H](C)CN([C@@H](C)CO)C2=O,inactive: 1
11,CC(=O)NCC(=O)N1CCOC[C@]2(CC[C@@H](Cn3cccn3)O2)C1,inactive: 1.01
12,C[C@H]1CN([C@@H](C)CO)C(=O)c2cccc(NC(=O)Nc3ccc4c(c3)OCO4)c2O[C@H]1CN(C)C(=O)Nc1cccc2ccccc12,inactive: 0.943
13,C[C@@H]1CN([C@@H](C)CO)C(=O)c2cc(NC(=O)Nc3cccc4ccccc34)ccc2O[C@@H]1CN(C)C(=O)Nc1ccc(F)cc1,inactive: 1.01
14,CC(C)C(=O)NNC(=O)c1ccccc1O,inactive: 1.02
15,C[C@H](CO)N1C[C@H](C)[C@@H](CN(C)Cc2ccncc2)Oc2c(NC(=O)c3ccncc3)cccc2C1=O,inactive: 1
16,CC1=NN2NC(C(F)(F)F)=NN2C(=O)C1,inactive: 1
17,CCCCCCCCC#CCCCCCCCC(=O)O,inactive: 1.06
18,COc1ccc(S(=O)(=O)Nc2ccc3c(c2)C(=O)N([C@@H](C)CO)C[C@H](C)[C@@H](CN(C)C(=O)Nc2c(C)noc2C)OCCCC[C@H](C)O3)cc1,inactive: 0.995
19,C=CC[C@@H](CC(=O)NCCO)C(=O)NCCOC(=O)[C@H](CC=C)NC(=O)OCC1c2ccccc2-c2ccccc21,inactive: 0.987
20,C[C@H]1CN([C@@H](C)CO)C(=O)Cc2cc(NS(=O)(=O)c3ccccc3)ccc2O[C@@H]1CN(C)S(=O)(=O)c1cccs1,inactive: 1
21,O=C(N[C@H]1CC[C@@H](CC(=O)N2CCOCC2)O[C@@H]1CO)c1ccccn1,inactive: 1.02

row,SMILES,relative growth
1,C[C@@H]1CN([C@@H](C)CO)C(=O)c2cc(NC(=O)Nc3ccc(C(F)(F)F)cc3)ccc2O[C@H]1CN(C)C(=O)NC1CCCCC1,inactive: 1.02
2,C[C@@H]1CN([C@H](C)CO)C(=O)c2cc(NC(=O)Nc3ccc(F)cc3)ccc2O[C@@H](C)CCCCO[C@@H]1CN(C)C(=O)c1ccccc1,inactive: 1.02
3,O=C(Nc1cc(C(=O)Nc2ccc(S(=O)(=O)O)cc2S(=O)(=O)O)cc(C(=O)Nc2ccc(S(=O)(=O)O)cc2S(=O)(=O)O)c1)Nc1cc(C(=O)Nc2ccc(S(=O)(=O)O)cc2S(=O)(=O)O)cc(C(=O)Nc2ccc(S(=O)(=O)O)cc2S(=O)(=O)O)c1,inactive: 0.948
4,C[C@H]1CN([C@@H](C)CO)C(=O)c2cccc(NC(=O)Nc3ccc(F)cc3)c2O[C@@H]1CN(C)Cc1ccc(Oc2ccccc2)cc1,inactive: 1.02
5,CCOC(=O)[C@H](Cc1ccccc1)NC(=O)c1cc(Cl)c(OCCN2CCN(C)CC2)c(Cl)c1O,inactive: 1.03
6,C[C@@H]1CN([C@@H](C)CO)C(=O)c2cc(C#Cc3ccccc3F)cnc2O[C@H]1CN(C)C(=O)Cc1cccnc1,inactive: 1
7,COc1cccc(NC(=O)N2C[C@@H](O)COC[C@H]3O[C@H](CC(=O)NCc4ccccc4F)CC[C@@H]32)c1,inactive: 0.996
8,C[C@@H]1CN([C@@H](C)CO)C(=O)c2cccc(NS(=O)(=O)c3cn(C)cn3)c2O[C@@H]1CN(C)S(C)(=O)=O,inactive: 1.02
9,NCCC(=O)NCCc1cnc[nH]1,inactive: 0.996
10,CO[C@@H]1CN(C)C(=O)c2ccc(NS(=O)(=O)CC(F)(F)F)cc2OC[C@H](C)N(C(=O)NC(C)C)C[C@@H]1C,inactive: 0.991
11,CCCS(=O)(=O)N1CCC[C@H](C(=O)NC)C1,inactive: 1
12,Cc1ccc(S(=O)(=O)N[C@@H]2CC[C@@H](CCNC(=O)CN3CCOCC3)O[C@H]2CO)cc1,inactive: 1.04
13,NC(=O)N1c2ccccc2C=Cc2ccccc21,inactive: 1.03
14,C[C@@H](O)c1cccc(C(F)(F)F)c1,inactive: 0.986
15,O=C(C[C@H]1C[C@@H]2c3cc(NC(=O)Nc4ccc(C(F)(F)F)cc4)ccc3O[C@@H]2[C@@H](CO)O1)NCc1cc(F)ccc1F,inactive: 1
16,C[C@@H]1CN([C@H](C)CO)C(=O)c2cc(NC(=O)CCC(F)(F)F)ccc2O[C@@H](C)CCCCO[C@H]1CN(C)C(=O)Nc1cccc2ccccc12,inactive: 1.02
17,CC(C)(C)OC(=O)C[C@@H]1CC=CC[C@@H](CC(=O)NCCO)C(=O)N[C@@H](Cc2ccccc2)COC1=O,inactive: 1
18,Cc1noc(C)c1NC(=O)N(C)C[C@@H]1Oc2ccc(NC(=O)Nc3cccc4ccccc34)cc2CC(=O)N([C@@H](C)CO)C[C@@H]1C,inactive: 1.01
19,C[C@H]1CN([C@@H](C)CO)C(=O)c2cccc(NC(=O)Nc3ccc(C(F)(F)F)cc3)c2O[C@H]1CN(C)S(C)(=O)=O,inactive: 0.961
20,COc1ccc(NC(=O)Nc2ccc3c(c2)CC(=O)N([C@H](C)CO)C[C@@H](C)[C@H](CN(C)Cc2ccc(Oc4ccccc4)cc2)O3)cc1,inactive: 1.03
